Reference: article PMC12040169 (PLOS Biology, 2025)
This is one part of the list.

system: T1, C. trachomatis L2/434/Bu expressing GFP (CTL2-GFP); design: species or system HeLa; C. trachomatis total inclusion area by high-content imaging, normalised to DMSO; details: total inclusion area; 28.5 h, 10 µM; inhibitor
T1 construct: L2/434/Bu GFP intracellular growth in HeLa cells
Outline: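 Post-fluorescence-read fixation, DNA staining with Hoechst and high-content imaging; GFP inclusion area and number per well, and nuclei counts, used as proxies for bacterial growth and host viability.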

Structure (SMILES) | % of control remaining
COC(=O)C(CC(=O)c1ccc(Br)cc1)n1cccn1 (centres unmarked) [CBK269338] | 93.3172
O=c1oc2ccccc2n1C1CCN(Cc2nc3ccccc3n2Cc2ccccc2)CC1 [CBK286176] | 99.98
COc1ccc(OC(=O)C2COc3ccccc3O2)cc1 (centres unmarked) [CBK131816] | 94.4414
Cc1cccc(NC(=O)c2cc(NC(=O)C3CCCCC3C(=O)O)ccc2N2CCCCC2)c1 (centres unmarked) [CBK267332] | 90.4934
CC(C)NC(=S)NC(=O)C1CCC1 [CBK010718] | 68.2714
COc1ccccc1NC(=S)NCCN(C)C [CBK265343] | 81.8667
O=C(O)CSc1nc2nc3c(cc2c(=O)n1Cc1ccccc1)CCCC3 [CBK286662] | 78.2693
Cn1cccc1CNCc1ccccn1 [CBK269818C] | 100.916
Cc1ccc(C2(CN3CCC(NC(=O)C4CC4)CC3)CC2)cc1 [CBK285359] | 87.4294
O=C(c1ccco1)N1CCN(c2cc(-c3ccccc3Oc3ccccc3)ncn2)CC1 [CBK037817] | 101.654
COc1cnc(-c2ccsc2)c(NC(=O)c2cc(C)oc2C)n1 [CBK145294] | 90.8681
Cc1nn(C)cc1S(=O)(=O)Nc1ccc2c(ccn2C)c1 [CBK282806] | 108.128
CCC(NC(=O)Nc1ccc(N2CCOCC2)nc1)c1cnn(CC)c1 (centres unmarked) [CBK305172] | 121.486
Cc1ccc(NC(=O)CC2Nc3ccccc3OC2=O)cc1C (centres unmarked) [CBK270214] | 94.3496
CNC(=O)CSc1ncnc2c1cnn2-c1ccc(F)cc1 [CBK287633] | 101.873
Cn1c(/N=N/c2c(-c3ccccc3)n(C)c3ccccc23)nc2ccccc21 [CBK262114] | 92.0607
Cc1noc(C)c1NC(=O)c1cscn1 [CBK200397] | 100.44
O=C(NCc1cccnc1)c1ccc(N2CCN(C(=O)c3ccccc3C(F)(F)F)CC2)nn1 [CBK153215] | 65.7387
COc1ccc(Cn2c(=O)n(S(=O)(=O)c3ccc(-c4cc(C(F)(F)F)n(C)n4)s3)c3ccccc32)cc1 [CBK106552] | 94.3909
Nc1nonc1-n1nnc(C(=O)O)c1-c1cccs1 [CBK266674] | 80.5732
CCOC(=O)C1CCN(S(=O)(=O)c2c(C)noc2C)CC1 [CBK051112] | 71.6471
O=C(c1ccc(NC2CC2)nc1)N1CCC(CN2CCOCC2)CC1 [CBK305970] | 34.5237
Cc1cc(C)nc(Nc2noc(-c3ccccc3)n2)n1 [CBK269971] | 73.6402
